Assay results taken from PubChem BioAssay AID588591 (National Center for Advancing Translational Sciences (NCATS), 2011).
Among all 390,000 compounds or so, about 4,700 (1.2%) were called active. Inconclusive results, whose numbers are uncertain, are shown with a selection of clear calls. The call rests on the fitted dose curve; in most records, active means well fitted inhibition curve with a large enough effect; inconclusive means small, poorly fitted or top-dose-only effect, or another doubt; inactive means no such curve, though single readings can be large or run the other way. Potencies of inconclusive entries are doubtful fits and often do not repeat.

target: DNA polymerase eta (Homo sapiens) (UniProt Q9Y253); assay: qHTS for Inhibitors of Polymerase Eta; settings: recombinant Pol eta, fluorescent DNA replication assay; series mostly up to 114 µM; activity change, negative = inhibition: at the top concentration
Sequence of UniProt Q9Y253 (Q9Y253 whole entry, looked up): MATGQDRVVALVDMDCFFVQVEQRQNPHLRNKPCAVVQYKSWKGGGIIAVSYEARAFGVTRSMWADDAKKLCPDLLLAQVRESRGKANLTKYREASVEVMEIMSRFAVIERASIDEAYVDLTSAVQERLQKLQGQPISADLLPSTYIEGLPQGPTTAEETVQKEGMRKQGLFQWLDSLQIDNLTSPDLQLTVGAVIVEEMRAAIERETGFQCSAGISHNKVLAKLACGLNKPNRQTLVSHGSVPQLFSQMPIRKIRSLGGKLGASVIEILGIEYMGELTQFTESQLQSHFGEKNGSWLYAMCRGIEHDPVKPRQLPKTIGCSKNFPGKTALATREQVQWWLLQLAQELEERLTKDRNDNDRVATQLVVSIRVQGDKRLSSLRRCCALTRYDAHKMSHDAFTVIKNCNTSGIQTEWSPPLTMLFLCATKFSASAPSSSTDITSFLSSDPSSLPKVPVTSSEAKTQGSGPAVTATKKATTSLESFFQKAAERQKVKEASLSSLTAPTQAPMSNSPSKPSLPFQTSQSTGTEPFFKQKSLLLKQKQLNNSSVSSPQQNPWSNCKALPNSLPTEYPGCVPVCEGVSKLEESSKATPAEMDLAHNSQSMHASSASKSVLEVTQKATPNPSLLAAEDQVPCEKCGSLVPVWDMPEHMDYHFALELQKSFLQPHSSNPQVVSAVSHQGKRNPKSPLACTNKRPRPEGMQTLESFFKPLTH
How it was run: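 Fluorescent replication assay: 50 nM final substrate added after a 15 min room-temperature compound preincubation with 10 nM enzyme. Signal taken at 0 min and again at 10 min.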
On the % scale 0 is the no-effect control and ±100 the full control effect; potency means the concentration at half of the fitted maximal effect; tags describe the fitted curve by direction and shape.

Compound	activity change, negative = inhibition	Potency
C=CCN1C(=O)/C(=C/c2cc(C)n(-c3cccnc3)c2C)C(=O)NC1=S	inactive: 1.61%	–
O=C(N/N=C/c1c(O)n(Cc2ccccc2)c(=O)[nH]c1=O)c1ccccc1O	inactive: -28.1%	–
CN(C)C(=O)Oc1ccc2c(c1)O/C(=C\c1ccc(Cl)cc1)C2=O	inactive: -4.32%	–
O=c1[nH]c(O)c(C=Nc2ccccc2Oc2ccccc2)c(=O)[nH]1	–	inconclusive: 89.1 µM [inhibitor, partial curve]
CCOc1ccc(N2C(=O)NC(=O)/C(=C\c3ccccc3[N+](=O)[O-])C2=O)cc1	inactive: 2.24%	–
O=C(COc1ccccc1Cl)N1CCCC(N2CCN(c3ccc(F)cc3)CC2)C1 (stereo unspecified)	inactive: -24.1%	–
CC/C(CC(c1ccccc1)c1c(O)c2ccccc2oc1=O)=N\NC(N)=S (stereo unspecified)	–	active: 28.2 µM
Cc1cc(C)cc(Oc2nc3ccccn3c(=O)c2/C=C(\C#N)c2nc3ccccc3s2)c1	–	inconclusive: 79.4 µM [inhibitor, partial curve, poor fit]
O=C(O)COc1ccc(Br)cc1C(c1c(C(=O)O)[nH]c2ccccc12)c1c(C(=O)O)[nH]c2ccccc12	–	active: 89.1 µM
Cc1ccc(C(C)C)c(OCCn2c(=O)oc3ccccc32)c1	–	inconclusive: 39.8 µM [inhibitor, partial curve, poor fit]
CN1CCN(c2ccc(/C=C3\C(=O)NC(=S)N(c4cccc(Br)c4)C3=O)o2)CC1	–	inconclusive: 15.8 µM [inhibitor, full curve, poor fit]
Oc1ccc2c3c1O[C@H]1c4[nH]c5c(c4C[C@@]4(O)[C@@H](C2)N(CC2CC2)CC[C@]314)C[C@@]1(O)[C@H]2Cc3ccc(O)c4c3[C@@]1(CCN2CC1CC1)[C@H]5O4	–	inconclusive: 39.8 µM [inhibitor, single point]
CCCCN1C(=O)/C(=C/c2ccc(N(C)C)cc2)C(=O)N(Cc2ccco2)C1=O	–	active: 39.8 µM
Cc1cc(/C=C2/C(=O)NC(=O)N(Cc3ccco3)C2=O)c(C)n1-c1ccccc1	–	active: 35.5 µM
COc1cc(-n2c(=S)[nH]c3ccccc3c2=O)c(Cl)cc1Cl	–	inconclusive: 79.4 µM [inhibitor, partial curve, poor fit]
O=C(O)Cn1cc(/C=C2\C(=O)NC(=O)N(c3ccc(Cl)cc3)C2=O)c2ccccc21	–	inconclusive: 44.7 µM [inhibitor, partial curve, poor fit]
CCOC(=O)C1CCN(/C=C2/C(=O)NC(=O)N(Cc3ccco3)C2=O)CC1	–	active: 7.08 µM
CN1C(=O)NC(=O)/C(=C/c2ccc([N+](=O)[O-])s2)C1=O	–	active: 22.4 µM
O=NN1CCCCC1	inactive: -17.2%	–
O=c1[nH]c(=O)n(-c2ccc(F)cc2)c(O)c1C=Nc1ccccc1N1CCCC1	–	inconclusive: 17.8 µM [inhibitor, partial curve]
O=C1NC(=S)N(C2CC2)C(=O)/C1=C/c1ccc2c(c1)CCN2CCCCl	–	active: 7.94 µM
Nc1c(C(=O)NCCN2CCOCC2)c2nc3ccccc3nc2n1Cc1ccco1	–	inconclusive: 15.8 µM [inhibitor, full curve, poor fit]

Compound	activity change, negative = inhibition	Potency
O=C(N/N=C/c1c(O)n(CCc2ccccc2)c(=O)[nH]c1=O)c1ccncc1	–	inconclusive: 25.1 µM [inhibitor, partial curve, poor fit]
CCOP(=O)(OCC)C1(O)C(=O)Nc2ccc(Br)cc21 (stereo unspecified)	–	inconclusive: 15.8 µM [inhibitor, partial curve, poor fit]
C=C1C(=O)O[C@@H]2C[C@@H](C)[C@@H]3C=CC(=O)[C@@]3(C)[C@@H](O)[C@H]12	–	inconclusive: 89.1 µM [inhibitor, single point]
Cn1c(O)c(/C=C/C=Nc2ccccc2)c(=O)n(C)c1=S	–	inconclusive: 4.47 µM [inhibitor, full curve, poor fit]
Nc1nc(N)c2nc(CNc3ccc(C(=O)NC(CCC(=O)O)C(=O)O)cc3)cnc2n1 (stereo unspecified)	–	inconclusive: 11.2 µM [inhibitor, partial curve, poor fit]
C[C@@H]1CC[C@@]2(OC1)O[C@H]1C[C@H]3[C@@H]4CC=C5C[C@@H](O)[C@H](O)C[C@]5(C)C4CC[C@]3(C)[C@H]1[C@@H]2C (stereo partly specified)	–	active: 89.1 µM
COP(=O)(OC)/C(C=O)=N/Nc1ccc([N+](=O)[O-])cc1	inactive: -1.27%	–
CCc1ccc(/C=C(/C#N)C(N)=S)cc1	–	inconclusive: 39.8 µM [inhibitor, partial curve, poor fit]
CCCCn1c(=O)c(C(=O)Nc2cccc(C)c2)c(O)c2ccccc21	–	inconclusive: 39.8 µM [inhibitor, partial curve, poor fit]
Cc1cc(C=C2C(=O)NC(=O)NC2=O)c(C)n1-c1cccnc1	inactive: 0.731%	–
O=C(O)c1cccc2c1NC(c1cccc([N+](=O)[O-])c1)C1CC(Sc3ccccc3[N+](=O)[O-])C(Cl)C21 (stereo unspecified)	–	active: 31.6 µM
N#Cc1c(/N=C/c2c(O)n(Cc3ccco3)c(=O)[nH]c2=O)sc2c1CCCC2	–	active: 14.1 µM
O=C(c1cccc2ccccc12)C1CCCN(C2CCC2)C1 (stereo unspecified)	–	inconclusive: 56.2 µM [inhibitor, partial curve, poor fit]
NC(=O)Nc1ccc(C(=O)OCC(=O)Nc2ccc(Cl)cc2C(=O)c2ccccc2)cc1	–	inconclusive: 3.55 µM [inhibitor, partial curve, poor fit]
c1ccc2sc(C3CCCNC3)nc2c1 (stereo unspecified)	–	inconclusive: 0.631 µM [inhibitor, full curve, poor fit]
Cc1ccc(N2C(=O)/C(=C/c3ccc(CN(CCC#N)S(C)(=O)=O)o3)C(=O)NC2=S)cc1	–	active: 2.24 µM
Fc1cccc(F)c1CN1CCN(Cc2c(F)cccc2F)CC1	inactive: 6.32%	–
Cc1cc(OC(C)C(=O)NCc2cccnc2)c2c3c(c(=O)oc2c1)CCC3 (stereo unspecified)	–	inconclusive: 39.8 µM [inhibitor, partial curve, poor fit]
CCOc1ccccc1N1C(=O)NC(=O)/C(=C/c2ccc3c4c(cccc24)CC3)C1=O	–	inconclusive: 22.4 µM [inhibitor, full curve, poor fit]
Cc1cccn2c(=O)c(/C=C(\C#N)c3nc4ccccc4s3)c(Oc3ccc(F)cc3)nc12	–	active: 79.4 µM
CCc1ccc(NC(=O)CCNC(=O)N2C[C@H]3C[C@@H](C2)c2cccc(=O)n2C3)cc1	inactive: -8.33%	–
C=CCc1cc(C=C2C(=O)NC(=O)NC2=O)cc(OC)c1OCc1ccc(C(=O)O)cc1	–	active: 50.1 µM

Compound	activity change, negative = inhibition	Potency
O=c1[nH]c(=O)n(Cc2ccco2)c(O)c1C=NCCN1CCOCC1	–	active: 10 µM
O=[N+]([O-])c1ccc(Sc2nc3ccccc3o2)c([N+](=O)[O-])c1	–	active: 50.1 µM
CC(C)Oc1cccc(NC(=O)c2cccn(Cc3ccc4c(c3)OC(F)(F)O4)c2=O)c1	–	inconclusive: 50.1 µM [inhibitor, partial curve, poor fit]
CCCCCn1c(N)c(C(=O)NCc2cccs2)c2nc3ccccc3nc21	inactive: -12.5%	–
COc1ccc(OC)c(C(Nc2ccccc2)P(=O)(OC(C)C)OC(C)C)c1 (stereo unspecified)	–	inconclusive: 39.8 µM [inhibitor, partial curve, poor fit]
C=CCN1C(=O)NC(=O)/C(=C/c2ccc(OC)c(CSc3ccccn3)c2)C1=O	–	inconclusive: 20 µM [inhibitor, partial curve, poor fit]
O=C(Cc1ccc(S(=O)(=O)N2CCCC2)s1)N1CCN(c2ccc(F)cc2)CC1	–	inconclusive: 56.2 µM [inhibitor, partial curve, poor fit]
CC1=C(O)C(=O)C=C2C1=CC=C1C2(C)CCC2(C)C3CC(C)(C(=O)O)CCC3(C)CCC12C (stereo unspecified)	–	active: 7.94 µM
COC(=O)C1=Nc2ccccc2/C1=C\c1c(O)n(-c2ccc(OC)cc2)c(=O)[nH]c1=O	–	inconclusive: 89.1 µM [inhibitor, single point]
O=C(Nc1ccc2oc(-c3cccnc3)nc2c1)c1ccc(-c2cccc(Cl)c2)o1	–	active: 70.8 µM
Cc1cc(C=C2C(=O)NC(=O)NC2=O)c(C)n1-c1ccncc1	–	inconclusive: 100 µM [inhibitor, partial curve, poor fit]
Fc1cccc(C2NCc3ccccc3-n3cccc32)c1 (stereo unspecified)	–	inconclusive: 79.4 µM [inhibitor, partial curve, poor fit]
O=C1NC(=O)N(CCC2=CCCCC2)C(=O)/C1=C/c1ccc(O)cc1	inactive: -24.8%	–
CC(C)n1c(O)c(C2c3cc(Cl)ccc3Oc3[nH]c(=O)n(C(C)C)c(=O)c32)c(=O)[nH]c1=O (stereo unspecified)	–	inconclusive: 56.2 µM [inhibitor, partial curve, poor fit]
C=CCN1C(=O)NC(=O)/C(=C/c2ccoc2)C1=O	–	active: 10 µM
COc1ccc(-c2nn(CCC#N)cc2C(=O)Nc2cccc([N+](=O)[O-])c2)cc1OC	inactive: -13.5%	–
CCc1ccc(N2C(=O)NC(=O)/C(=C\C=C\c3ccco3)C2=O)cc1	–	active: 20 µM
C=CCOc1ccc(CC2C(=O)N(C)C(=O)N(C)C2=O)cc1	–	active: 15.8 µM
Nc1ccc2nonc2c1[N+](=O)[O-]	–	inconclusive: 44.7 µM [inhibitor, full curve]
CCN1CCN(c2ccc([N+](=O)[O-])cc2C=C2C(=O)NC(=O)NC2=O)CC1	–	inconclusive: 3.16 µM [inhibitor, full curve, poor fit]
CCn1c(=S)sc2c(=O)[nH]c(SCC(=O)Nc3cc(OC)ccc3OC)nc21	–	active: 50.1 µM
O=C1NC(=O)C(=Cc2ccco2)C(=O)N1	–	active: 8.91 µM
